Data from PubChem BioAssay AID624171 (National Center for Advancing Translational Sciences (NCATS), 2012).
Among all 410,000 compounds or so, about 1,200 (0.29%) were called active. Inconclusive results, whose numbers are uncertain, are shown with a selection of clear calls. Calls come from the whole dose curve; as a rule, active = well fitted activation curve with a large enough effect; inconclusive = small, poorly fitted or top-dose-only effect; inactive = flat fitted curve, though single readings scatter. Potencies beside an inconclusive call are fits to weak or partial responses and may not hold up.

Test: qHTS of Nrf2 Activators; note: nearly all actives have a fitted effect of over 65% in size; for activation: % of control where 0% means no effect
Settings: AREc32 ARE-luciferase reporter (MCF7-derived line), luminescence, 24 h; activation: at 46.1 µM (top of the series)
Outline: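 AREc32 cells carrying an ARE-driven firefly luciferase, 1000 cells/well in OPTI-MEM with 5% FBS, dosed after overnight attachment and incubated 24 hr at 37 deg C. Steady-Glo luminescence read after 30 min at RT.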
Potency is the fitted concentration of half-maximal effect; tags give direction and shape of the fitted curve.

activation, inactive:
CC[C@]12c3[nH]c4cc(-c5ccco5)ccc4c3CCN1C(=O)[C@@H](CC(=O)NCCC1=CCCCC1)C[C@@H]2C(=O)N1CCN(C(=O)C2CC2)CC1 9.38%
O=S(=O)(Nc1ccc(N=Nc2ccccc2)cc1)c1ccccc1 0.123%
CCOC(=O)c1c(NC(=O)CSc2cn(CCNC(=O)c3ccccc3OC)c3ccccc23)sc2c1CCC2 -0.763%
CCc1ccc(C(=O)CN(C#N)c2nc(C)cc(C)n2)cc1 0.304%
Cc1cccc(C)c1NS(=O)(=O)c1ccc(NS(=O)(=O)c2ccc3c(c2)OCCO3)cc1 -0.179%
CCCCNC(=O)COC(=O)c1c2c(nc3ccccc13)/C(=C\c1cccs1)CC2 3.39%
COc1cccc(NC(=O)C2CC(=O)N(c3ccc(Br)cc3)C2)c1 (stereo not drawn) -1.35%
CN1CC[C@]2(CCN3CCc4c(oc5ccccc45)[C@@H]3C2)N(C)C1=O 4.79%
CCCCC(CC)CNC(=O)c1ccc(Cn2c(=O)[nH]c3cc(OC)c(OC)cc3c2=O)cc1 (stereo not drawn) -0.785%
Cc1ccc(Cn2c(=O)c3c(ncn3C)n(C)c2=O)cc1 0.129%
CSc1nc(N(C)NC(=O)c2ccccc2)c2ccccc2n1 0.153%
CC(C)Nc1nc(NCCOc2ccccc2)c2sccc2n1 -0.232%
FC(F)(F)c1cnc(NNC(=S)Nc2ccccc2Cl)c(Cl)c1 4.85%
Cc1nnc(SCCN2C(=O)c3ccccc3C2=O)nc1C 0.271%
Cc1c(C(=O)Nc2nonc2-c2ccc(F)cc2)oc2ccc(F)cc12 4.01%
COc1ccccc1CNCC(=O)Nc1cc(S(=O)(=O)N2CCOCC2)ccc1Cl 0.0691%
O=C(O)Cc1sc(Nc2ccccc2Cl)nc1-c1ccccc1 4.78%
NC(=O)CSc1nnc(-c2cccc(S(=O)(=O)N3CCCCC3)c2)o1 -0.0146%
CC1CCCCN1CCNC(=O)Cn1nc(-c2ccccc2)ccc1=O (stereo not drawn) -0.173%
Cc1cccc(NC(=O)C2CCN(S(=O)(=O)c3c(C)noc3/C=C/c3ccco3)CC2)n1 11.4%

Potency, active:
CC(C)OC(=O)c1cccc2c1C(=O)c1ccccc1-2 11.2 µM
O=C(/C=C/c1ccc(Br)o1)Nc1nccs1 6.31 µM
O=C(NC(=S)Nc1cc(Cl)ccc1Cl)c1ccco1 11.2 µM
O=c1cc(-c2cccs2)oc2ccc(Cl)cc12 11.2 µM
Cc1ccccc1C(=O)OC1OC(=O)C(Cl)=C1Nc1ccccc1 (stereo not drawn) 15.8 µM
COc1cc2c(c(OC)c1OC)C(=O)C(=Cc1ccccc1)O2 15.8 µM
COc1ccc(-c2cn3ccccc3n2)cc1OC 11.2 µM
Cc1cc(-c2sccc2C)nc(-n2cccc2)n1 5.62 µM
CCC(Sc1ccc(Cl)cc1)C(=O)Nc1nnc(-c2cccc([N+](=O)[O-])c2)s1 (stereo not drawn) 12.6 µM
Nc1c(C(=O)c2cccs2)sc2nsc(SCCN3CCCCC3)c12 10 µM
CC(C)OC(=O)c1cn(-c2ccccc2)nc1-c1ccco1 3.16 µM

Potency, inconclusive:
NC(=O)c1ccsc1NC(=O)CCS(=O)(=O)c1ccc(Cl)cc1 35.5 µM [activator, single point]
COc1ccc(NC(=O)/C(C#N)=C/c2ccc(Sc3nncn3C)c([N+](=O)[O-])c2)cc1 20 µM [activator, single point]
COc1ccc(NS(=O)(=O)c2cccc(C(=O)N/N=C/c3c(F)c(F)c(F)c(F)c3F)c2)cc1 35.5 µM [activator, single point]
C(=C1c2ccccc2-c2ccccc21)c1ccccn1 11.2 µM [activator, partial curve, poor fit]
CCc1c(C)nc(SCC(=O)c2cccs2)c(C#N)c1C 2.82 µM [activator, full curve, poor fit]
CCN1C(=O)c2cccc3c(N)ccc1c23 14.1 µM [activator, partial curve, poor fit]
Cc1ccc(/C=C2/NC(=O)N(Cc3ccccc3)C2=O)o1 22.4 µM [activator, single point]
Cn1c(=O)[nH]c(=O)c2c1nc(Br)n2Cc1ccccc1Cl 17.8 µM [activator, single point]
O=C1CCCc2nc(NCc3ccco3)ncc21 22.4 µM [activator, single point]
O=C(/C=C/c1ccco1)NC(=S)Nc1ccccn1 12.6 µM [activator, partial curve, poor fit]
O=[N+]([O-])c1ccc(O)c(NC(=S)Nc2ccccc2)c1 15.8 µM [activator, single point]
CS(=O)(=O)c1ccc(-c2cccc(NC(=O)c3ccco3)c2)nn1 11.2 µM [activator, partial curve]
CCC(C)NC(=O)/C=C1\Sc2ccccc2NC1=O (stereo not drawn) 11.2 µM [activator, partial curve, poor fit]
O=C1NC(c2cccc([N+](=O)[O-])c2)=CCN1c1ccccc1O 25.1 µM [activator, single point]
Cc1ccc(C(=O)CCNc2ccccc2)o1 35.5 µM [activator, single point]
Cc1ccc(-c2csc(NC3OC(=O)c4ccccc43)n2)cc1 (stereo not drawn) 17.8 µM [activator, partial curve, poor fit]
Oc1c(Br)cc(Br)cc1CNc1cccc2cccnc12 12.6 µM [activator, partial curve]
Cn1c(=O)n(Cc2ccco2)c(=N)c2c3c(sc21)CCCC3 14.1 µM [activator, single point]
COc1ccccc1C(=O)CC(=O)c1ccccc1 7.08 µM [activator, partial curve, poor fit]
COc1ccccc1Cc1c(-c2ccco2)nc2ccc(Br)cn12 10 µM [activator, partial curve]
CCN1C(=O)c2cccc3c(S(=O)(=O)Nc4ccccn4)ccc1c23 17.8 µM [activator, single point]
O=C1C(Cl)=C(N2CCOCC2)C(=O)N1c1cccc(Cl)c1 31.6 µM [activator, single point]
COc1cc(/C=C/C(=O)c2ccc3c(c2)OCO3)cc(Cl)c1O 28.2 µM [activator, single point]
Cc1ccc([C@H]2C(C#N)=C(N)Oc3cc(C)oc(=O)c32)o1 28.2 µM [activator, single point]
Cc1nnc2sc(SCc3cccc(Cl)c3)nn2c1=O 31.6 µM [activator, single point]
O=C(Nc1ccccc1C(=O)NCc1ccco1)Nc1cccc2ccccc12 3.55 µM [activator, single point]
Cc1cc2nc(-c3cccc(Cl)c3)c(Cc3ccccc3)n2c(C)c1Br 17.8 µM [activator, partial curve, poor fit]
NC(=O)c1ccc(NCc2ccco2)c([N+](=O)[O-])c1 11.2 µM [activator, partial curve, poor fit]
Brc1cc(/C=N/n2cnnc2)oc1Br 20 µM [activator, single point]
O=C(CN1C(=O)/C(=C/c2ccccc2Cl)SC1=S)NC1C=CS(=O)(=O)C1 (stereo not drawn) 22.4 µM [activator, single point]
COC(=O)C1=C(C)N(c2cc(Cl)cc(Cl)c2)C(=O)C1 28.2 µM [activator, single point]
CCCCOc1ccc(C(=O)CCN2CCCCC2)cc1 3.55 µM [activator, single point]
COC(=O)C1C=CC(OC2OC(COC(C)=O)C(OC(C)=O)C(OC(C)=O)C2OC(C)=O)n2c(=O)n(-c3ccccc3)c(=O)n21 (stereo not drawn) 3.98 µM [activator, single point]
Cc1cc(=O)c2c(o1)C(=O)c1occc1C2=O 31.6 µM [activator, single point]
CCOC(=O)/C=C/C(=O)Nc1ccc(-c2nnc3n2CCCCC3)cc1 20 µM [activator, single point]
Cc1[nH][nH]c(=O)c1C(c1ccc(-c2ccc(Cl)c(Cl)c2)o1)c1c(C)[nH][nH]c1=O 25.1 µM [activator, single point]
CC(=O)Nc1ccc(S(=O)(=O)NC(CC(=O)NCCc2ccccc2)C(C)C)cc1 (stereo not drawn) 2.82 µM [activator, partial curve, poor fit]
O=C(OCc1csc(-c2ccccc2)n1)c1cccs1 11.2 µM [activator, partial curve, poor fit]
O=C(Nc1ccc(S(=O)(=O)N2CCOCC2)cc1)c1ccc(Cl)c([N+](=O)[O-])c1 20 µM [activator, single point]
Cc1[nH]c2ccccc2c1C(C[N+](=O)[O-])c1ccco1 (stereo not drawn) 15.8 µM [activator, single point]
COc1cccc(-c2noc(-c3cccnc3)n2)c1 0.562 µM [activator, full curve, poor fit]
O=C(Oc1c(-c2ccco2)oc2ccccc2c1=O)c1cccnc1 0.562 µM [activator, full curve, poor fit]
